Measured values as given in PubChem BioAssay AID651820 (National Center for Advancing Translational Sciences (NCATS), 2012).
In all, about 340,000 compounds went through this assay and about 12,000 (3.5%) were called active. Inconclusive means that the source gave no clear call. Such entries were picked first, then a sample of the others. Calls come from the whole dose curve; as a rule, active = well fitted inhibition curve with a large enough effect; inconclusive = small, poorly fitted or top-dose-only effect, or another doubt; inactive = no such curve, though single readings can be large or run the other way. No potency is given beside an inconclusive call; the fits are too rough.

Assay: qHTS Assay for Inhibitors of Hepatitis C Virus (HCV)
Settings: Huh7.5.1 HCVcc-Cre (HCVcc is cell-culture hepatitis C virus) infection, luciferase reporter, 44 h; activity change, negative = inhibition: at 41.8 µM (top of the series) unless noted
In short: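 HCVcc-Cre virus at an moi near 0.5 was added right after compound to cells cultured 4 h from seeding (1,000 cells/well). Luciferase activity was determined 44 h later, 15 min after substrate addition at RT.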
% is set by controls: 0 for no effect and ±100 for the full control effect; potency is the fitted concentration of half-maximal effect; tags give direction and shape of the fitted curve.

Structure (SMILES)	Potency	activity change, negative = inhibition
Cn1ncc2c(O/N=C(\N)c3ccc(C(C)(C)C)cc3)ncnc21	active: 5.62 µM	–
O=C(Nc1ccc(OC(=O)c2cccnc2)cc1)c1cccnc1	inactive	–
CC(=O)OC(C#CCN1CCOCC1)c1ccccc1 (stereo unspecified)	inactive	–
CCc1ccc(-c2cc(C(=O)NN3CCN(C)CC3)c3ccccc3n2)cc1	inconclusive [inhibitor, single point]	–
Cc1nc2ccc(C(C(F)(F)F)(C(F)(F)F)C(F)(F)F)cc2[nH]1	inconclusive [inhibitor, single point]	–
CC(=O)Nc1ccc(C(=O)NNC(=O)Cc2ccccc2)cc1	inconclusive [inhibitor, partial curve]	–
COc1ccc(C2=NOC(C(=O)NCc3cccs3)C2)cc1OC (stereo unspecified)	inconclusive [inhibitor, partial curve]	–
COc1cc(C(=O)NCCOc2ccc(Cl)cc2)ccc1OCc1c(C)noc1C	inactive	–
O=C1N=C(N2CCN(c3ccccc3)CC2)S/C1=C/c1ccco1	inconclusive [inhibitor, single point]	–
COc1ccc(Cl)cc1NC(=O)CSc1nc(Nc2ccccc2)nc(N2CCOCC2)n1	active: 11.2 µM	–
CC(C)CC(NC(=O)c1cccs1)c1nnc(SCc2ccc(Cl)c(Cl)c2)n1C (stereo unspecified)	inconclusive [inhibitor, single point]	–
COCCNc1ncnc2c1cnn2-c1ccc(Cl)cc1	inactive	–
CCOC(=O)c1sc(NC(=O)c2ccc(C)o2)nc1C	inconclusive [inhibitor, full curve, poor fit]	–
CCOC(=O)c1cc(-c2ccncc2)nc2c1c(C)nn2C	inconclusive [inhibitor, single point]	–
CC(=O)N(Cc1cc2cc(C)ccc2[nH]c1=O)c1cccc(C)c1C	inactive	–
Cc1cc(OC(C)C(N)=O)nc(-c2ccccc2)n1 (stereo unspecified)	inactive	–
C/C(=N\OCC(=O)OCC(=O)NC(=O)c1ccccc1)c1ccc2c(c1)OCO2	–	inactive: -2.79% [at 8.37 µM]
Cc1ccc(S(=O)(=O)N[C@@H](CCCCN)C(=O)CCl)cc1	inconclusive [inhibitor, single point]	–
O=C(Cc1ccc(NC(=O)C2CCN(C(=O)c3ccccc3)CC2)cc1)Nc1cccc(C(=O)N2CCCC2)c1	–	inactive: -10.6% [at 8.37 µM]
COc1ccc(/C=N/NC(=O)c2ccoc2C)cc1CN1CCN(c2ccc(F)cc2)CC1	inconclusive [inhibitor, single point]	–
CCOC(=O)C(C)n1cnc2c(nnn2-c2ccc(C)cc2)c1=O (stereo unspecified)	inactive	–
